Measurements published in the supplement of paper PMC3334620.
In all, about 33,000 sequences were measured (“E-score (-0.5 to 0.5)”: median about -0.012, highest 2% from about 0.27 on). The list shows a part of the results.

target: T1, Vhr1 (UniProt P40522); assay: PBM E-score (8-mer binding enrichment) (E-score (-0.5 to 0.5)); higher = stronger / more preferred TF binding; most listed sequences are background and not binding sites; settings: protein concentration: 200 nM; construct: GST-full length
T1 sequence: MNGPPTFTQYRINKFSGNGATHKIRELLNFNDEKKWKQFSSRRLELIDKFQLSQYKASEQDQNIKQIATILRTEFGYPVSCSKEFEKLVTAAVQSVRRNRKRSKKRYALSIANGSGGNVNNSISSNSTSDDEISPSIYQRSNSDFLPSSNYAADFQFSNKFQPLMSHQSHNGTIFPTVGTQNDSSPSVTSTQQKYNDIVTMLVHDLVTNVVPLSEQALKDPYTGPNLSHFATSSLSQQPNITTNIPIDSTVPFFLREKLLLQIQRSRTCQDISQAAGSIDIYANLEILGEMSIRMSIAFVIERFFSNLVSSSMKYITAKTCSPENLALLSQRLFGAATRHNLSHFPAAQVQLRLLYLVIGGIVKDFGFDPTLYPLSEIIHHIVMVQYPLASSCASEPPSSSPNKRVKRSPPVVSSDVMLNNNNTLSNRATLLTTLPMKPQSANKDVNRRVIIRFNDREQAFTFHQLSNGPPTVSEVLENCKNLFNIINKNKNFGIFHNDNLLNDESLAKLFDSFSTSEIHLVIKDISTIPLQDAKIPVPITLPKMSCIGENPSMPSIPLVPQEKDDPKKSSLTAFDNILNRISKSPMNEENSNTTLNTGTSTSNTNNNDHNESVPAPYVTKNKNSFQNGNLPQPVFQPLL
Summary of the method: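 Yeast transcription factors carrying a GST tag, as full-length proteins or DNA-binding domains, were produced by PURExpress in vitro transcription/translation. About 100-200 nM protein was applied to universal all-10-mer Agilent arrays, double-stranded by primer extension on fresh or once-stripped slides. Bound protein was detected with fluorescent anti-GST, and scans were normalised with masliner. The Universal PBM Analysis Suite gave each ungapped eight-base word, pooled with its reverse complement, an E-score, a modified Wilcoxon-Mann-Whitney statistic.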

Sequence	PBM E-score
AAAACCTT	-0.177
GACAAGAA	-0.153
CACCTGCC	0.129
AGATGTAT	0.133
ACAGAATC	-0.00235
ACCTGGTG	0.165
AAAGGAGT	0.0366
GGTCCAAC	-0.0911
AATCGCGG	0.0545
GACTGAAC	0.0799
CGTCAGGA	-0.0893
GATGTACA	0.17
TAACTCGA	0.114
AACTTGTC	-0.19
CAGTAGCG	0.146
CTAGGTAA	0.0578
ACCGCTAG	-0.061
AAACGAGG	-0.161
ACACGTGA	0.00293
TATATTAA	0.243
ACTGCGAC	0.209
ACTGTTAA	0.0716
CTCTAGAG	-0.265
AATCTGCG	0.09

Sequence	PBM E-score
AACAGTAA	0.143
ACTAGAGT	0.0036
CCCTTTAC	-0.146
AAAAAGTA	0.00228
ACAGCTCT	-0.114
ATCGAGGC	-0.154
ACGCCCGC	-0.0159
AACTTTCG	-0.349
GATGACAC	0.157
CAACGATG	0.0466
AATGGATA	0.0689
AGGAAAAG	-0.147
GTCTGTCA	-0.0786
CCCTCTGA	0.0375
CATCGTCA	0.192
GTGGGCCA	-0.106
GTTCAGCA	-0.00052
CTAAACGC	-0.171
GCATGGGC	-0.0393
TACCACCA	0.083
ATTTCTGA	-0.152
AAGCCCCC	-0.408
GGCCTGCA	-0.165
ATACTTAG	-0.0208

Sequence	PBM E-score
AGTTTTCG	-0.106
GGGGCAAC	-0.123
CCCTCATA	-0.0983
TGCTCGAA	-0.0601
CCCTAAAC	-0.183
ATAGAATG	0.056
CGCGAGCA	0.00371
GTTTCTGA	0.0708
AGACTAAC	0.0491
ACCGTAAC	-0.0106
AACCAGAT	0.172
GGGAGTTA	-0.144
CGGACCAA	0.0443
CGGGTCTC	0.148
AGTGGTGG	0.097
GAGCTGTA	-0.229
CCCTGTTA	0.0326
GGCGGCAC	0.134
CATGTGCG	0.0753
AAATAAAT	-0.133
CGTCACTC	-0.0595
TCACGCAA	0.0179
AGGGGCTA	-0.0328
CGTGCCAA	-0.065

Sequence	PBM E-score
ATTGTAAA	-0.0424
ATTCAACG	0.015
ACCTATAC	0.116
ATGGACTC	0.191
TATAGATA	-0.117
CTGGGTCA	0.11
AATGTGGT	0.115
CGGACTCA	0.381
TAACAAGA	-0.253
AATAACCC	0.0809
GGACTCCC	0.0918
AAATACAG	-0.0233
GATATGAC	0.197
ACCTTCCA	-0.17
AGGGCTTA	-0.268
ACGACCTA	0.143
ATGCAGTG	0.276
AATTCGCT	0.133
AGCGTGAG	0.0864
ATACTCAA	0.178
CTCCAACA	0.126
CATACGAC	0.0203
